# Screen size: about 340,000 compounds; about 12,000 (3.5%) were called active. This list was built around the results that the source calls inconclusive (neither active nor inactive); the mix of calls is not that of the screen. Calls come from the whole dose curve; as a rule, active = well fitted inhibition curve with a large enough effect; inconclusive = small, poorly fitted or top-dose-only effect, or another doubt; inactive = no such curve, though single readings can be large or run the other way. Potencies of inconclusive entries are left out as doubtful fits.
# Assay: qHTS Assay for Inhibitors of Hepatitis C Virus (HCV)
# Settings: Huh7.5.1 HCVcc-Cre (HCVcc is cell-culture hepatitis C virus) infection, luciferase reporter, 44 h; activity change, negative = inhibition: at 41.8 µM (top of the series) unless noted
# In short: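 Luciferase read-out (15 sec integration) after a 15 min room-temperature substrate step quantifies HCVcc-Cre infection. Cells, 1,000 per well, had compound added 4 h post-plating, then virus at ~0.5 moi, and were cultured 44 h.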
# % is set by controls: 0 for no effect and ±100 for the full control effect; potency is the fitted concentration of half-maximal effect; tags give direction and shape of the fitted curve.
SMILES,Potency,"activity change, negative = inhibition"
COc1ccc(-c2coc3cc(O)ccc3c2=O)cc1O,"inconclusive [inhibitor, partial curve, poor fit]",
NC(=O)c1oc2ccccc2c1NC(=O)CCc1ccccc1,"inconclusive [inhibitor, single point]",
CCCOc1ccccc1-c1nc2c([nH]1)c(=O)[nH]c(=O)n2C,"inconclusive [inhibitor, single point]",
O=C(NCCCN1CCOCC1)c1ccc2c(c1)N(Cc1ccc(F)cc1)CCS2,"inconclusive [inhibitor, partial curve]",
Cc1cc(N2CC34C=CC(O3)C(C(=O)O)C4C2=O)no1 (stereo not drawn),,inactive: 12.6%
Cc1ccccc1NC1=C(Cl)C(=O)N(C2CCCCC2)C1=O,,inactive: 11.9%
Fc1ccc(-c2cc(C(F)(F)F)nc(-n3cc(Cl)cn3)n2)cc1,"inconclusive [inhibitor, partial curve]",
Cc1cc(N2CCCCC2)nc(-c2ccc(Br)cc2)n1,"inconclusive [inhibitor, single point]",
COc1ccc2c(Cl)c(C(=O)NCCCn3ccnc3)sc2c1,"inconclusive [inhibitor, single point]",
Cc1ccc(S(=O)(=O)Nc2ccccc2/C=N/c2nc3ccccc3n2C)cc1,"inconclusive [inhibitor, partial curve]",
Cc1ccccc1Nc1nc(N)nc(CCl)n1,active: 1.26 µM,
O=C(CN1CCN(Cc2ccccc2)CC1)Nc1cccc(Cl)c1,,inactive: -0.223%
COC(=O)C1=C(c2ccc(F)cc2OCc2ccccc2)C[C@@H]2CC[C@H]1N2C(=O)NCc1ccc2c(c1)OCO2,active: 10 µM,
CC(=O)N1c2ccccc2C(C)(c2ccccc2)CC1(C)C (stereo not drawn),,inactive: -18.5%
COc1ccc(CNC(=O)C(=O)NCC2OCCN2S(=O)(=O)c2ccc3c(c2)OCCO3)cc1 (stereo not drawn),,inactive: -7.05%
O=[N+]([O-])c1ccc(N/N=C/c2cccnc2)cc1,active: 11.2 µM,
Cc1ccc(-c2nc(CS(=O)(=O)CC(=O)N3CCc4ccccc4C3)c(C)o2)cc1,"inconclusive [inhibitor, single point]",
CC(=O)Nc1cccc(C(=O)/C=C/c2ccc(C)cc2)c1,active: 12.6 µM,
CCSc1nc2c(c(=O)[nH]c(=O)n2C)n1C,,inactive: 13%
CSc1ncc(Cl)c(C(=O)Nc2c(C)cccc2C)n1,,inactive: -11.8%
COc1ccc(C2C(C#N)=C(N)Oc3cc(O)ccc32)cc1 (stereo not drawn),"inconclusive [inhibitor, single point]",
O=C(Cc1csc(NC(=O)Nc2ccc(Cl)cc2)n1)NCc1cccnc1,"inconclusive [inhibitor, partial curve, poor fit]",
O=C(C1CC(=O)N(C2CCCC2)C1)N1CCC(Cc2ccccc2)CC1 (stereo not drawn),"inconclusive [inhibitor, partial curve]",
CCCCOc1ccc(S(=O)(=O)NCc2csc(C)n2)cc1,"inconclusive [inhibitor, single point]",

SMILES,Potency,"activity change, negative = inhibition"
Cc1ccccc1N/N=C/c1c(C)nc2ccccn12,"inconclusive [inhibitor, single point]",
Cc1ccnc(NC(=O)c2ccc(S(=O)(=O)N3CCCCCC3)cc2)c1,"inconclusive [inhibitor, single point]",
COc1cc(C(=O)Nc2ccc3nc(N4CCOCC4)sc3c2)cc(OC)c1OC,"inconclusive [inhibitor, single point]",
CCCc1cc(=O)oc2cc(OCC(=O)N3CCN(C(=O)C4COc5ccccc5O4)CC3)ccc12 (stereo not drawn),"inconclusive [inhibitor, full curve]",
COC(=O)N/N=C/c1ccc(-c2cc(Cl)ccc2Cl)o1,,inactive: -24.3%
c1ccc2c(c1)[nH]c1cnccc12,"inconclusive [inhibitor, single point]",inactive: -18.8% [at 8.37 µM]
COc1ccc(C(=O)Nc2ccc(S(=O)(=O)N(C)c3ccccc3)cc2)cc1,active: 12.6 µM,
CCOc1ccccc1CNC(=O)C1CCN(c2nnc(C)c3c(C)n(-c4ccc(C)cc4)nc23)CC1,active: 11.2 µM,
CCn1c(COc2ccccc2C(N)=O)nc2ccccc21,,inactive: -0.722%
Cc1ccccc1C(=O)Nc1nc2c(C)csc2c(=O)s1,,inactive: -26.9%
CCCN1C(C)C(C(=O)OCC)=CN(Cc2cccc(I)c2)S1(=O)=O (stereo not drawn),"inconclusive [inhibitor, partial curve, poor fit]",
CC1CCN(C(=O)CSc2ccc(-c3cccc([N+](=O)[O-])c3)nn2)CC1,"inconclusive [inhibitor, single point]",
CC(=O)NCc1ccc(C(=O)CCl)s1,"inconclusive [inhibitor, single point]",
Cc1cc(Br)ccc1NC(=O)CN1C(=O)C2C3CC(c4ccccc4)C(C3)C2C1=O (stereo not drawn),"inconclusive [inhibitor, single point]",
Cc1nc2ccccc2c2ncccc12,,inactive: -7.27%
Clc1ccccc1CN(Cc1ccccc1)C(c1cccs1)c1nnnn1C1CCCC1 (stereo not drawn),"inconclusive [inhibitor, partial curve]",
CN1CCN(c2nc(-c3cccs3)cc(C(F)(F)F)n2)CC1,active: 2.82 µM,
COc1cccc(/C=N/Nc2nc3ccccc3[nH]2)c1O,"inconclusive [inhibitor, single point]",
Cc1cc(OCc2nc(-c3ccc(NC(=O)c4cccnc4)cc3)no2)ccc1Cl,"inconclusive [inhibitor, full curve, poor fit]",
O=C(Oc1ccc(C(=S)N2CCOCC2)cc1Cl)c1ccccc1F,,inactive: -8.84%
CN(CC(=O)Nc1ccccc1Br)C(=O)c1ccncc1,"inconclusive [inhibitor, full curve, poor fit]",
O=C1N=C(N2CCC(Cc3ccccc3)CC2)S/C1=C/c1cn[nH]c1-c1ccccc1,"inconclusive [inhibitor, single point]",
Cc1nnc2c(NC3CCCC3)nc3ccccc3n12,"inconclusive [inhibitor, single point]",
COc1ccccc1NC(=O)C1=C(C)Nc2nc(CCCO)nn2C1c1cccnc1 (stereo not drawn),inactive,

SMILES,Potency,"activity change, negative = inhibition"
CC(Nc1oc(-c2ccco2)nc1C#N)c1ccccc1 (stereo not drawn),"inconclusive [inhibitor, single point]",
COc1ccccc1-c1cc2ccccc2[nH]1,"inconclusive [inhibitor, partial curve]",
Cc1cc(C)cc(C(=O)N(Cc2ccco2)c2c(N)n(Cc3ccccc3)c(=O)[nH]c2=O)c1,,inactive: 24%
COc1ccccc1N1CCN(C(=O)c2cc3c(s2)-c2ccccc2OC3)CC1,"inconclusive [inhibitor, single point]",
COC(=O)C1=C(c2ccc(F)cc2OCc2ccccc2)C[C@@H]2CC[C@H]1N2C(=O)NCc1ccc(C(C)(C)C)cc1,"inconclusive [inhibitor, partial curve]",
O=C(CCc1c[nH]c2ccccc12)N1CCN(c2ccc(O)cc2)CC1,"inconclusive [inhibitor, single point]",
OCC(O)CSc1nc(-c2ccccc2)nc2c1CCC2 (stereo not drawn),"inconclusive [inhibitor, single point]",
CC(C)(C)C(=O)O/N=C(\N)c1ccc(Oc2cc(Cl)cc(Cl)c2)c([N+](=O)[O-])c1,"inconclusive [inhibitor, single point]",
CCOc1ccc(N2C(=O)Nc3ccccc3C2(O)C(=O)NCc2ccc(C)cc2)cc1 (stereo not drawn),"inconclusive [inhibitor, single point]",
CCc1cccc(NC(=O)C2CCCN(S(=O)(=O)c3cnc[nH]3)C2)c1 (stereo not drawn),,inactive: 11.5%
Cc1ccc(S(=O)(=O)Nc2cccc(-c3ccc(N4CCCCCC4)nn3)c2)c(C)c1,"inconclusive [inhibitor, single point]",
CN(C)c1ccnc2sc(C(=O)NCc3ccccc3)c(N)c12,active: 12.6 µM,
O=C(CF)N(O)c1ccc(C=Cc2ccccc2)cc1,"inconclusive [inhibitor, partial curve]",
Cc1ccc(NC(=O)CS(=O)CC(=O)N(c2ccccc2F)C(C)C(=O)NC2CCCC2)cc1 (stereo not drawn),,inactive: -1.94%
CCOc1ccc(CNC(=O)CCCOc2cc(=O)n(C)c3ccccc23)cc1,"inconclusive [inhibitor, partial curve]",
Cc1cc(OCCCN2CCN(Cc3ccccc3)CC2)ccc1[N+](=O)[O-],"inconclusive [inhibitor, single point]",
CSC1=NCCN1C(=O)C(C)Oc1ccccc1 (stereo not drawn),"inconclusive [inhibitor, single point]",
CCOC(=O)C1(Cc2ccc(OC)cc2)CCN(C(=O)c2cc(C)nn2C)CC1,"inconclusive [inhibitor, partial curve]",
NC(=O)CSc1nnnn1-c1cccc(Cl)c1,,inactive: 32.8%
COC(C(=O)Nc1ccccc1F)c1ccccc1 (stereo not drawn),,inactive: 16.4%
Cc1cccc(-n2ncc3c2CCCC3NC(=O)c2ccc[n+]([O-])c2)c1C (stereo not drawn),active: 12.6 µM,
COC(=O)Nc1ccc(S(=O)(=O)Nc2cccc3ccccc23)cc1,"inconclusive [inhibitor, partial curve]",
O=C(C1CCCN(S(=O)(=O)c2ccc(Br)cc2)C1)N1CCN(Cc2ccccc2)CC1 (stereo not drawn),active: 11.2 µM,
CN1CCCN(Cc2nc(-c3cccc(C(F)(F)F)c3)no2)CC1,"inconclusive [inhibitor, single point]",
